For 61 molecules, inhibition results are on record in PubChem BioAssay AID485344 (National Center for Advancing Translational Sciences (NCATS), 2010).

One may read the inhibition as the drop in the measured response relative to a control, in per cent.

Screen size: about 340,000 compounds; about 6,900 (2%) were called active. Cut-off read from the data, not from the text of the source: active = inhibition above about 30%; inactive = below that, where a call was filed. The list shows a part of the results, in another mix than the full data. Entries without a call were filed so in the source.

UniProt P14416, sequence (P14416 whole entry, looked up): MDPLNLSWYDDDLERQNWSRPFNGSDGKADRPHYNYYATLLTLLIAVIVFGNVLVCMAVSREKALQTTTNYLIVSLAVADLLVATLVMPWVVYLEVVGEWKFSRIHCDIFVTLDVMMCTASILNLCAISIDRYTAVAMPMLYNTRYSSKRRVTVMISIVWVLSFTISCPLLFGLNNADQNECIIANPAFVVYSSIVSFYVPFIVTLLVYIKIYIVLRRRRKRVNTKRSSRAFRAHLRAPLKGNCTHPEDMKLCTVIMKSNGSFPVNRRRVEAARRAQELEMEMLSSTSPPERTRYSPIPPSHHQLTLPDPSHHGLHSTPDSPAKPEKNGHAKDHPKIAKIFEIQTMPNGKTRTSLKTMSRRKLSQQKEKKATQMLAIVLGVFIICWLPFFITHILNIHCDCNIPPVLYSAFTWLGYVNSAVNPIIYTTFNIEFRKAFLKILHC

The target of the assay is D(2) dopamine receptor (Homo sapiens) (UniProt P14416). The experiment in a line: HTS Assay for Allosteric Antagonists of the Human D2 Dopamine Receptor: Primary Screen for Antagonists. Note: 0% is about no effect. The conditions noted are these: HEK293 TREx D2 cells, calcium flux, dopamine EC80; at 10 µM; stronger effect = higher value. The gist of the method:
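Overnight-induced (tetracycline, 30 C) HEK293 T-REx cells carrying force-coupled D2 receive a no-wash calcium dye, then compound, then EC80 dopamine at 180 s; signals are read kinetically throughout.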
As to `CCOc1ccc(Oc2nc(NC)nc(N3CCOCC3)n2)nn1`, the inhibition was determined as 5.15%.
The result for `Cc1cccc(Cn2cc3c(=O)n(CC(=O)Nc4ccc(C)c(F)c4)nc-3c3cc(F)ccc32)c1` reads 0.879%; that for `COc1ccc(CC(=O)NCc2nc3cccnc3n2Cc2ccc(C)cc2)cc1OC`, 8.03%; that for `CCCC(=O)Nc1nnc2n1CCS2`, -10.4%.
Next, `O=C(CSc1nc2c(c(=O)[nH]1)CN(Cc1ccc3c(c1)OCO3)CC2)Nc1cccc(Cl)c1`: 14.9%.
With `Cc1nc2c(c(C)nn2-c2ccccc2)c(C)c1CCC(=O)NCCc1ccccc1`, the inhibition turned out to be 2.17%.
Take `CN(C(=O)C1=CC(c2ccc3c(c2)OCO3)=NS(=O)(=O)N1C)c1ccccc1`: the inhibition was -13.3%.
Next, `COc1ccc(N2CC(NC(=O)c3cc4ccccc4o3)CC2=O)cc1OC` (stereo unspecified): -23.8%; `CCc1cccc(NS(=O)(=O)c2c(C)nc3sc(CC)nn3c2=O)c1`: -2.53%; `Cc1ccc(NC(=O)Cn2c(=O)n(CCc3ccccc3)c(=O)c3c4c(sc32)CCCC4)c(C)c1`: -0.731%.
Turning to `O=c1oc2ccc(Br)cc2cc1-c1csc(-c2ccccc2)n1`, the inhibition amounted to 0.756%.
Next, `CCOC(=O)c1cc(NC(=O)c2ccc(C)cc2)c(=O)n2c1oc1ccc(Cl)cc12`: 0.0849%.
Turning to `COC(=O)c1ccc(NC(=O)c2cc(=O)c3ccc(C)cc3o2)cc1`, the inhibition was 7.82%.
The result for `CCCc1nc2ccccc2n2c(-c3ccc(C)cc3)c3c(=O)n(C)c(=O)n(C)c3c12` reads 0.868%; that for `Cc1ccc2c(c1)N(CC(=O)NCc1ccccc1Br)C(=O)c1cccnc1O2`, 11.4%; that for `CC(=O)c1cccc(NC(=O)c2c(N3CCCC3=O)c3cc(F)ccc3n2C)c1`, 4.56%.
Next, `CCSc1ncc(Cl)c(C(=O)Nc2c(C(=O)c3ccc(C)c(F)c3)oc3ccccc23)n1`: -5.63%.
The result for `COc1ccccc1NC(=O)c1c(NC(=O)c2ccco2)sc2c1CCC(C(C)(C)C)C2` (stereo unspecified) reads -5.27%; that for `O=C(NC1=NCCS1)C12CC3CC(CC(C3)C1)C2`, active: 50.1%; that for `Cc1cccc(N2CCN(C(=O)c3cnn(-c4cccc(Cl)c4C)c3C3CCNCC3)CC2)c1C`, 14.4%.
As for `Cc1ccc(-c2noc(CSc3nnc(Cc4ccccc4)n3-c3cccc(C)c3)n2)cc1`, the inhibition worked out at 4.53%.
On to `O=C(NCC(c1cccnc1)N1CCc2ccccc2C1)C(=O)Nc1ccc(Cl)cc1` (stereo unspecified), for which the inhibition was -0.42%.
Turning to `Cc1cc(C)c(NC(=O)Cn2c(=O)n(Cc3ccco3)c(=O)c3ccc(C(=O)NC4CCCC4)cc32)c(C)c1`, the inhibition came out at 14.8%.
The result for `Cn1nnc2c(NCCc3ccccc3)ncnc21` reads 7.49%; that for `CCN(C(=O)CCn1cnc2onc(-c3ccc(F)cc3)c2c1=O)c1ccc(OC)cc1`, 3.35%; that for `COc1ccc(Nc2nc3ccccc3c3nnc(C)n23)cc1Cl`, 16.3%.
Next, `CCc1cccc(-n2nnc(-c3nc(-c4ccccc4Cl)no3)c2N)c1`: -6.64%; `O=C(CCS(=O)(=O)c1nc(-c2ccc3c(c2)OCO3)cc(C(F)(F)F)n1)Nc1ccccc1F`: 4.09%.
Take `O=C(NNC(=O)c1cccs1)c1ccc([N+](=O)[O-])cc1`: the inhibition is active: 61.3%.
With `CCn1c(=O)cc(SCC(=O)NCCc2ccc(Cl)cc2)c2ccccc21`, the inhibition amounted to 9.54%.
`CCOC(=O)C1CCC(CN(Cc2ccc(Cl)cc2)S(=O)(=O)c2ccc(F)c(C(=O)Nc3cccc(F)c3)c2)CC1` (stereo unspecified): the inhibition is -3.47%.
The result for `Cc1cc(C)cc(OCCCOc2cccc3cccnc23)c1` reads active: 33.1%; that for `COc1ccccc1Nc1cc(C(=O)NC2CCCC2)c2ccccc2n1`, 12.7%; that for `COc1ccc(S(=O)(=O)N2CCCCC2)cc1C(=O)Nc1cccc(C(F)(F)F)c1`, -0.291%.
Next, `CCOC(=O)c1cnc(NCc2ccccc2OC)c2ccccc12`: 2.44%.
Consider `S=C1Cc2ccccc2C(c2ccc(Cl)cc2)N1` (stereo unspecified), for which the inhibition was active: 33%.
Turning to `COc1ccc(/C=C/C(=O)Nc2sc3c(c2C(N)=O)CCCC3)cc1`, the inhibition is -16.7%.
Consider `CCn1cc(C(=O)NCc2ccccc2OC)c(=O)c2cc(S(=O)(=O)N3CCCCC3)ccc21`, for which the inhibition turned out to be 9.13%.
For the molecule `O=C(CCN1C(=O)C2C3C=CC(C3)C2C1=O)N1CC(=O)N(CCc2ccccc2)C(=O)C1` (stereo unspecified), the inhibition was active: 31.3%.
Next, `CCc1ccc2oc(C(=O)Nc3cccc(C(F)(F)F)c3)cc(=O)c2c1`: 4.18%; `O=C(c1ccc(-c2ccccc2)cc1)C1CCCN(Cc2ccncc2)C1` (stereo unspecified): active: 74.6%.
Next, `CSc1nn(Cc2ccc(Cl)cc2)c(N(C(C)=O)C(C)=O)c1S(=O)(=O)c1ccccc1`: 15.4%.
Next, `Cc1ccc(NS(=O)(=O)c2ccc3[nH]c(=O)ccc3c2)cc1N(C)C`: -10.3%; `C#CCOc1ccc(-c2nnc(Nc3cccc(C)c3)c3ccccc23)cc1`: 1.03%; `Cc1cccc(Cn2c(=O)n(CCc3ccccc3)c(=O)c3c(C)c(C)sc32)c1`: -8.95%.
Regarding `Cc1ccc(NC(=O)c2cc(C)nc3c2c(C)nn3-c2cccc(Cl)c2C)c(C)c1`, the inhibition is -7.48%.
Turning to `COc1ccc(-c2ccc(=O)n(CC(=O)Nc3ccc(C)cc3C)n2)cc1`, the inhibition is -3.77%.
The result for `O=c1n(Cc2cccc(C(F)(F)F)c2)c2ccccc2c2nc(-c3ccccc3)nn12` reads -9.81%.
Take `COc1ccc(-c2noc(CCC(=O)NCc3ccc(C)cc3)n2)cc1`: the inhibition was -3.57%.
The result for `Cc1ccc(CNC(=O)CCCCCn2c(=O)c3sccc3n(CC(=O)N(C)c3ccccc3)c2=O)cc1` reads -1.78%.
Next, `CCOC(=O)c1cccc(NC(=O)Cn2ncc3c4ccccc4n(Cc4ccccc4)c3c2=O)c1`: -3.4%; `Cc1ccc(C(=O)Nc2ccc3oc(-c4ccc(C(C)(C)C)cc4)nc3c2)cc1`: 4.33%; `COC(=O)c1ccc(OC)c(Cn2c(=O)n(Cc3ccccc3)c(=O)c3c2c2cc(OC)ccc2n3C)c1`: -11.4%.
Consider `CC(=O)c1ccc(NC(=O)C2=CC(c3ccc4c(c3)OCO4)=NS(=O)(=O)N2C)cc1`, for which the inhibition came out at 12.9%.
Next, `CCCCOc1ccc(C(=O)N2CCN(CCc3ccccn3)CC2)cc1`: -20.4%; `CNC(=O)c1cc(Nc2nnc(-c3ccc(O)cc3)c3ccccc23)ccc1OC`: 2.11%.
As for `O=C1CCCc2cc(S(=O)(=O)NCC3CCC(C(=O)Nc4ccccc4F)CC3)ccc2N1` (stereo unspecified), the inhibition came to 5.01%.
The result for `CC(NC(=O)c1ccccc1NC(=O)c1nsc2ccccc12)c1ccccc1` (stereo unspecified) reads -0.674%; that for `COc1ccc(OC)c(NC(=O)CCN2CCN(c3ccccc3)CC2)c1`, active: 80.4%.
Next, `O=C(NCC12CC3CC(CC(C3)C1)C2)c1cc2nc(-c3ccccc3)cc(C(F)(F)F)n2n1`: 12.4%; `COc1ccc(N2CCN(C(=O)c3cc4ccc5cccnc5c4[nH]3)CC2)cc1`: 10.6%.
